According to the RNAGym collection of RNA variant scans (doi:10.1101/gad.245936.114):
Variants at the floor of the assay are shown more often than the library holds them.

B1: tRNA (parent)
chain: CUCUCGGUAGCCAAGUUGGUUUAAGGCGCAAGACUUUAAUUUAUCACUACGAAAUCUUGAGAUCGGGCGUUCGACUCGCCCCCGGGAGAUUUUUUCCUCGAGCAA

Variants of: B1
Assay: nonsense suppression (GFP-seq) (ratio to wild type); higher = more function; SUP4oc tRNA, yeast GFP reporter sort-seq
Procedure, shortened: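 Yeast carrying genome-integrated SUP4oc tRNA variants from a library with ~3% random mutations were grown in raffinose/galactose medium with 80 mg/L adenine. Each strain also carried a galactose-driven GFP ochre reporter and RFP. Cells were sorted into GFP/RFP bins, and each bin was Illumina-sequenced (phred ≥30). Nonsense suppression (GFPSEQ) is the bin median GFP/RFP, weighted by each variant's estimated cell share per bin, relative to wild-type SUP4oc; variants needed ≥100 reads and ≥30 cells.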
In the case of U22G A62G C79U, the nonsense suppression is reported as ≤ 0.026.
With U21C A30G U70G the nonsense suppression was ≤ 0.026.
For A23C A24G G28A G61U U63G G67A, the nonsense suppression was ≤ 0.026.
In the case of U22C A87U, the nonsense suppression is reported as ≤ 0.026.
U22C A87G showed a nonsense suppression of 0.724.
Variant U21C C27U has a nonsense suppression of 0.154.
In the case of U21C C27A, the nonsense suppression is reported as ≤ 0.026.
In the case of U21C G67A G69C, the nonsense suppression is reported as ≤ 0.026.
For U22A G28U A54U U70G A87C, the nonsense suppression was ≤ 0.026.
With U21G C72U C83G the nonsense suppression was ≤ 0.026.
In the case of U22C A24G U35C U71G, the nonsense suppression is reported as ≤ 0.026.
With U21C C72G A89G the nonsense suppression was ≤ 0.026.
In the case of U21G G28U A87C, the nonsense suppression is reported as ≤ 0.026.
For U21C A33C C81G, the nonsense suppression was ≤ 0.026.
With U21G C80G G88C the nonsense suppression was ≤ 0.026.
In the case of U22A A24U G65A U70G, the nonsense suppression is reported as ≤ 0.026.
In the case of U21G A30U C56A, the nonsense suppression is reported as ≤ 0.026.
With U22G G69U the nonsense suppression was ≤ 0.026.
In the case of U21A C56A G59A, the nonsense suppression is reported as ≤ 0.026.
For U22G U55A C68U A74G, the nonsense suppression was ≤ 0.026.
With U22G U70C the nonsense suppression was ≤ 0.026.
With U21C U35G U57A C79A the nonsense suppression was ≤ 0.026.
With U21G C64A the nonsense suppression was ≤ 0.026.
With U21A U35A the nonsense suppression was ≤ 0.026.
In the case of U22A U57A U63A U70G, the nonsense suppression is reported as ≤ 0.026.
In the case of U21G A74G G85U, the nonsense suppression is reported as ≤ 0.026.
In the case of U21G A24G G61C G73A U76C G88C, the nonsense suppression is reported as ≤ 0.026.
With U22C U58G the nonsense suppression was ≤ 0.026.
For U22A C34G U55C G69A, the nonsense suppression was ≤ 0.026.
For U22A C82A, the nonsense suppression was ≤ 0.026.
For A23C A54G G78C C81G, the nonsense suppression was ≤ 0.026.
U21G A54U C75U gave a nonsense suppression of 1.23.
For U21G G66C C68A U70G, the nonsense suppression was ≤ 0.026.
In the case of U21G U22C U71A, the nonsense suppression is reported as ≤ 0.026.
For U22G C75A A87U, the nonsense suppression was ≤ 0.026.
In the case of U21G C34U G73C, the nonsense suppression is reported as ≤ 0.026.
With U22G A30C A31U U76G the nonsense suppression was ≤ 0.026.
With U22G A23G C34A the nonsense suppression was ≤ 0.026.
In the case of U21G C79A, the nonsense suppression is reported as ≤ 0.026.
Variant U22C C68U has a nonsense suppression of 1.16.
In the case of U21G C64G U70G, the nonsense suppression is reported as ≤ 0.026.
In the case of U22G C29U G32A, the nonsense suppression is reported as ≤ 0.026.
For U22C G25U G61U, the nonsense suppression was ≤ 0.026.
In the case of U21G A60G G66C, the nonsense suppression is reported as ≤ 0.026.
In the case of U22G A23U G28C C79G, the nonsense suppression is reported as ≤ 0.026.
In the case of U21A A89U, the nonsense suppression is reported as ≤ 0.026.
In the case of U22C G25C A62G, the nonsense suppression is reported as ≤ 0.026.
For U21A A23G C80U, the nonsense suppression was ≤ 0.026.
In the case of U21C A23U G65U, the nonsense suppression is reported as ≤ 0.026.
For U22A G25U C34U, the nonsense suppression was ≤ 0.026.
For U21G C64G A87C, the nonsense suppression was ≤ 0.026.
For U21G C68A C81A, the nonsense suppression was ≤ 0.026.
In the case of U21G U70A U71C, the nonsense suppression is reported as ≤ 0.026.
In the case of U21A A23C U55A G61A, the nonsense suppression is reported as ≤ 0.026.
With U22C C29G the nonsense suppression was ≤ 0.026.
In the case of U22G G59C, the nonsense suppression is reported as ≤ 0.026.
In the case of U21A G78C, the nonsense suppression is reported as 0.0372.
In the case of U22A C77U C79U, the nonsense suppression is reported as ≤ 0.026.
For U22G C68A G73C, the nonsense suppression was ≤ 0.026.
With U21A C29G U55G U71C the nonsense suppression was ≤ 0.026.
With U21G A23G G69A C79U the nonsense suppression was ≤ 0.026.
For U22G G28U A62U G73U, the nonsense suppression was ≤ 0.026.
For U21A G86U, the nonsense suppression was ≤ 0.026.
With U22A G25C the nonsense suppression was ≤ 0.026.
In the case of U21A U35C C79U A87C, the nonsense suppression is reported as ≤ 0.026.
In the case of U21C U22G G32C A62U, the nonsense suppression is reported as ≤ 0.026.
For U22C C34G G88A, the nonsense suppression was ≤ 0.026.
With U21G A23C C34G C68U the nonsense suppression was ≤ 0.026.
For U21A G28C, the nonsense suppression was 0.495.
For U22C G28A C34U U55G, the nonsense suppression was ≤ 0.026.
In the case of U21C C56G G61U A62U, the nonsense suppression is reported as ≤ 0.026.
For U21G G85A, the nonsense suppression was 1.08.
U21G C29U showed a nonsense suppression of 0.809.
In the case of U21G G32C U55C, the nonsense suppression is reported as ≤ 0.026.
In the case of U21A A24U U55C U58G A89G, the nonsense suppression is reported as ≤ 0.026.
In the case of U22C G59A, the nonsense suppression is reported as ≤ 0.026.
In the case of U22C A24U A87C, the nonsense suppression is reported as ≤ 0.026.
In the case of U22C A33G U55G C68A G84U, the nonsense suppression is reported as ≤ 0.026.
With U21A G66C the nonsense suppression was ≤ 0.026.
For U21A A74C G85C, the nonsense suppression was ≤ 0.026.
In the case of U22G G25A C34U U70C A74G, the nonsense suppression is reported as ≤ 0.026.
With U21A C75A the nonsense suppression was 0.947.
In the case of U21C U22A U57G, the nonsense suppression is reported as ≤ 0.026.
In the case of U21C A33G G69A, the nonsense suppression is reported as ≤ 0.026.
With A23C A54G G65A the nonsense suppression was ≤ 0.026.
With U21G A74U the nonsense suppression was ≤ 0.026.
For U22C A33U, the nonsense suppression was 0.202.
In the case of U21G U57G C64U G69C U70G U76A, the nonsense suppression is reported as ≤ 0.026.
In the case of U22G C29U U57C, the nonsense suppression is reported as ≤ 0.026.
Variant U21A A87G has a nonsense suppression of 0.493.
For U22G G66C U71C C79U, the nonsense suppression was ≤ 0.026.
For U21C G25A G26A, the nonsense suppression was ≤ 0.026.
With A23C A89G the nonsense suppression was ≤ 0.026.
In the case of U21A G25U C27G U55A U71C C72A G78A, the nonsense suppression is reported as ≤ 0.026.
With U21A U55C U57G the nonsense suppression was ≤ 0.026.
U21C G61A A62C gave a nonsense suppression of 0.0269.
In the case of U22G U55C U57A G65A, the nonsense suppression is reported as ≤ 0.026.
Variant U22G C75U has a nonsense suppression of 0.981.
U21G U22G gave a nonsense suppression of 0.571.
With U21C C56G U70C C75G the nonsense suppression was ≤ 0.026.
In the case of U22A U35C U57C, the nonsense suppression is reported as ≤ 0.026.
With U21G A31G C79A the nonsense suppression was ≤ 0.026.
In the case of U21A A54G U70C U71G, the nonsense suppression is reported as ≤ 0.026.
In the case of U21G U76G, the nonsense suppression is reported as ≤ 0.026.
In the case of U21G C80U G88C, the nonsense suppression is reported as ≤ 0.026.
In the case of U22C A23G G65C, the nonsense suppression is reported as ≤ 0.026.
In the case of U22G A54U G88U, the nonsense suppression is reported as ≤ 0.026.
For U21C C79A, the nonsense suppression was ≤ 0.026.
In the case of U21A A33C A62G A89C, the nonsense suppression is reported as ≤ 0.026.
With U21A G67A G85C the nonsense suppression was ≤ 0.026.
For U21A G59C C80A, the nonsense suppression was ≤ 0.026.
For U22G U71C, the nonsense suppression was ≤ 0.026.
For U21G A24G, the nonsense suppression was ≤ 0.026.
Work on U21G A24U yielded a nonsense suppression of 0.0683.
With U22C C68A C77U the nonsense suppression was ≤ 0.026.
With U22A A30G A60C the nonsense suppression was ≤ 0.026.
For U21C U58A C82A, the nonsense suppression was ≤ 0.026.
For U21C C75G U76G C79A C83A, the nonsense suppression was ≤ 0.026.
With U21C A24G A62C U70G the nonsense suppression was ≤ 0.026.
For U22A G88A, the nonsense suppression was ≤ 0.026.
For U22G C82G, the nonsense suppression was ≤ 0.026.
For A23C A60U G85A, the nonsense suppression was ≤ 0.026.
For U21A G26A, the nonsense suppression was ≤ 0.026.
With U22G G78U the nonsense suppression was 0.112.
For U21C U71A, the nonsense suppression was ≤ 0.026.
With U21A C79A the nonsense suppression was ≤ 0.026.
For U21A C83G G88U, the nonsense suppression was ≤ 0.026.
In the case of U21G A74U C82A, the nonsense suppression is reported as ≤ 0.026.
With U21G A23G U70C C77G A89U the nonsense suppression was ≤ 0.026.
For U22A G26A, the nonsense suppression was ≤ 0.026.
For U22G A31C, the nonsense suppression was ≤ 0.026.
In the case of A23C A24C A31C, the nonsense suppression is reported as ≤ 0.026.
With U22A A31C G32C C56G U57A the nonsense suppression was ≤ 0.026.
With U22A C29U C34U G61C the nonsense suppression was ≤ 0.026.
In the case of U21C A31C G78U, the nonsense suppression is reported as ≤ 0.026.
With U22G A31G A33G G61C C81U the nonsense suppression was ≤ 0.026.
In the case of U22A G73U U76A, the nonsense suppression is reported as ≤ 0.026.
In the case of A23C A33C, the nonsense suppression is reported as ≤ 0.026.
With U22G U57A A62G G78U the nonsense suppression was ≤ 0.026.
In the case of U21G U70A U76G, the nonsense suppression is reported as ≤ 0.026.
With U21C A60C C80U the nonsense suppression was ≤ 0.026.
In the case of U21A A23U, the nonsense suppression is reported as ≤ 0.026.
In the case of U22C G66C C82G, the nonsense suppression is reported as ≤ 0.026.
With U21C U70C the nonsense suppression was ≤ 0.026.
In the case of U22A A24G C83G, the nonsense suppression is reported as ≤ 0.026.
With U22A C34U C79U G85A the nonsense suppression was ≤ 0.026.
For U22C G66A A87G, the nonsense suppression was ≤ 0.026.
In the case of U22C G78U C83U, the nonsense suppression is reported as ≤ 0.026.
With U21G A24G G61C the nonsense suppression was ≤ 0.026.
For U21G A74U G84A, the nonsense suppression was ≤ 0.026.
In the case of U21A A24G G66C, the nonsense suppression is reported as ≤ 0.026.
For U21A C29U A60C G65A G69A G73U, the nonsense suppression was ≤ 0.026.
With U21C A54U U57C G59A A89U the nonsense suppression was ≤ 0.026.
In the case of U21A A74G C75A C77U C80U, the nonsense suppression is reported as ≤ 0.026.
In the case of U21A A33G G69U, the nonsense suppression is reported as ≤ 0.026.
In the case of U22G A54C G66C A87U, the nonsense suppression is reported as ≤ 0.026.
With U22C A24C G86A the nonsense suppression was ≤ 0.026.
Variant U21G A31G has a nonsense suppression of 0.77.
In the case of U22C U70C C80G, the nonsense suppression is reported as ≤ 0.026.
In the case of U21C G26U C34U, the nonsense suppression is reported as ≤ 0.026.
With U21A C29G the nonsense suppression was ≤ 0.026.
In the case of U21G G59C U71C G84A A89G, the nonsense suppression is reported as ≤ 0.026.
With U21A U57G the nonsense suppression was ≤ 0.026.
In the case of U22C G59A C77G, the nonsense suppression is reported as ≤ 0.026.
In the case of U21G A33G C34U G65C, the nonsense suppression is reported as ≤ 0.026.
With U22G A60G G66A the nonsense suppression was ≤ 0.026.
With A23C A74G G84A the nonsense suppression was ≤ 0.026.
